Experimental data as given in PubChem BioAssay AID686978 (National Center for Advancing Translational Sciences (NCATS), 2013).
The campaign covered roughly 420,000 compounds. About 64,000 (15%) were called active. The shares of active, inactive and inconclusive entries below differ from those in the screen. Calls follow the shape of the dose curve; as a rule, active = well fitted inhibition curve with a large enough effect; inconclusive = small, poorly fitted or top-dose-only effect; inactive = flat fitted curve, though single readings scatter. No potency is given beside an inconclusive call; the fits are too rough.

Experiment: qHTS for Inhibitors of human tyrosyl-DNA phosphodiesterase 1 (TDP1): qHTS in cells in absence of CPT; also: nearly all actives have a fitted effect of over 55% in size
Settings: DT40 Tdp1-/- hTDP1 cells, no CPT, ATP luminescence, 48 h; activity change, negative = growth inhibition: at 46.2 µM (top of the series) unless noted
In short: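 Cells were dispensed at 400 per well, compounds added by pin tool, plates incubated ≥48 hr at 37 °C, then CellTiter-Glo added for 30 min at room temperature before luminescence reading. Line: DT40 Tdp1-/- complemented with hTDP1; camptothecin omitted.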
% is scaled to controls: 0 for no effect and ±100 for the full control effect; potency is read from the fitted curve at half-maximal effect; tags tell the direction and shape of the fitted curve.

Row | SMILES | activity change, negative = growth inhibition | Potency
1 | C=C(C)c1ccc(C(C)(C)NC(=O)NCc2ccco2)cc1 | inactive: -18.6% | –
2 | COc1cccc(CNC(=O)CN2CCC(c3nc4ccc(C)cc4[nH]3)CC2)c1 | – | inconclusive [inhibitor, partial curve, poor fit]
3 | CC(C)n1c(=O)[nH][nH]c1=S | inactive: -3.11% | –
4 | COc1cc(OC)c(N2CC(C(=O)Nc3cccc(C(=O)NC4CC4)c3)CC2=O)cc1Cl (stereo unspecified) | – | inconclusive [inhibitor, single point]
5 | CCN(c1cccc(C)c1)S(=O)(=O)c1cc(Br)cc2c1N(C(C)=O)C(C)C2 (stereo unspecified) | – | active: 20.6 µM
6 | CC(NC(=O)c1ccc2c(c1)N(Cc1ccc(Cl)cc1)C(=O)CS2)c1ccccc1 (stereo unspecified) | inactive: -22.6% | –
7 | Cc1nn2c3cc(N4CCOCC4)ccc3nc2c2ccccc12 | – | inconclusive [inhibitor, partial curve]
8 | COC(=O)CCSCC(=O)N1N=C(c2ccc(Br)cc2)CC1c1cccc(OC)c1OC (stereo unspecified) | – | inconclusive [inhibitor, single point]
9 | O=C(c1cc(-c2ccccc2)nc2ccccc12)N1N=C(C(F)F)CC1(O)C(F)F (stereo unspecified) | inactive: -10.4% | –
10 | COc1ccccc1NC(=O)CSc1nc2[nH]ncc2c(=O)[nH]1 | inactive: -6.69% | –
11 | COc1ccc(CCN2C(=O)c3ccncc3C2=O)cc1OC | – | inconclusive [inhibitor, single point]
12 | Cc1cc(C)c(O)c(-c2cc(C(=O)NCCc3ccc(S(N)(=O)=O)cc3)[nH]n2)c1 | – | active: 9.2 µM
13 | CCOc1cc(C(=S)N2CCOCC2)ccc1O | – | inconclusive [inhibitor, single point]
14 | CCCN(c1c(C)n(C)n(-c2ccccc2)c1=O)S(=O)(=O)c1ccc(C)cc1 | – | inconclusive [inhibitor, single point]
15 | O=C(NCc1cccs1)C1CC(c2ccc(Cl)cc2)=NO1 (stereo unspecified) | – | active: 11.6 µM
16 | CC(C)Oc1cccc(C(=O)C2CCCN(C(=O)c3ccsc3)C2)c1 (stereo unspecified) | inactive: -0.879% | –
17 | CC1CCN(C(=O)CSc2n[nH]c(-c3ccc(F)cc3)n2)CC1 | – | inconclusive [inhibitor, single point]
18 | O=C(COc1ccc(Br)cc1)Nc1nc(-c2cccnc2)cs1 | inactive: -28.8% | –
19 | Cc1ccc(S(=O)(=O)NC(C)C(=O)Nc2cccc([N+](=O)[O-])c2)cc1 (stereo unspecified) | inactive: 0.677% | –
20 | CCc1nc2ccc(C(=O)NCCNC(C)=O)cn2c1N(C)CCCc1ccccc1 | – | inconclusive [inhibitor, single point]
21 | CCc1ccc(-n2nnc(-c3nc(-c4cccs4)no3)c2N)cc1 | – | inconclusive [inhibitor, partial curve]
22 | CC(C)OC(=O)c1ccc(Cn2nnc3sc4c(c3c2=O)CCCC4)cc1 | inconclusive: -31% [inhibitor] | –
23 | COc1ccc2c(c1)c1c(c(=O)n(-c3ccccc3C)c(=O)n1Cc1cccc(C(F)(F)F)c1)n2C | – | active: 3.66 µM
24 | Cc1ccc(/C=N/NC(=O)CSc2nc3ccccc3n2C)s1 | – | inconclusive [inhibitor, partial curve]

Row | SMILES | activity change, negative = growth inhibition | Potency
25 | Cc1noc(C)c1CSCC(=O)Nc1nc2ccc(Oc3ccccc3)cc2s1 | – | inconclusive [inhibitor, partial curve]
26 | COc1ccc(C2C(C(C)=O)=C(O)C(=O)N2c2ccc(F)cc2)cc1 (stereo unspecified) | inactive: 5.71% | –
27 | Nc1nonc1OCCN1CCN(c2ccc([N+](=O)[O-])c3cccnc23)CC1 | – | inconclusive [inhibitor, single point]
28 | CCN(CC)CCN1C(=O)c2cccc3cc(N)cc(c23)C1=O | – | active: 7.31 µM
29 | CC(=O)Nc1cccc(/C(C)=N/NC(=O)c2ccccc2Cl)c1 | – | inconclusive [inhibitor, single point]
30 | O=C(Cc1ccccc1F)OCN1C(=O)c2ccccc2C1=O | inactive: 13% | –
31 | COc1ccc(OC)c(C2=NS(=O)(=O)N(C)C(C(=O)NCc3cccs3)=C2)c1 | – | inconclusive [inhibitor, partial curve]
32 | O=S(=O)(c1cc(F)ccc1F)N1CCN2CCCC2C1 (stereo unspecified) | inactive: 7.81% | –
33 | CCc1nc2ccc(C(=O)N3CCN(c4cc(Cl)ccc4C)CC3)cc2nc1CC | – | active: 18.4 µM
34 | CN(Cc1ccccc1)C(CNS(=O)(=O)c1ccccc1)c1ccccc1 (stereo unspecified) | – | inconclusive [inhibitor, single point]
35 | CC(=O)OCCCNc1cc(Sc2ccc(C)cc2)c2nonc2c1[N+](=O)[O-] | – | active: 3.26 µM
36 | CCN(CC)CC(=O)Nc1ccc(-c2nc3cc(NC(=O)CN(CC)CC)ccc3o2)cc1 | – | active: 18.4 µM
37 | O=C(c1ccc(N2C(=O)CCC2=O)cc1)N1CCCSC1=Nc1ccccc1 | – | inconclusive [inhibitor, single point]
38 | CCOC(=O)c1cnc2cc(C(F)(F)F)ccc2c1Nc1ccc(F)cc1F | – | inconclusive [inhibitor, single point]
39 | O=C(CSc1nnc(Cn2cnc3ccccc32)o1)c1ccccc1 | – | active: 10.3 µM
40 | CCOc1ccc(N2C(=O)CC(NC3CCN(C(=O)c4cccs4)CC3)C2=O)cc1 (stereo unspecified) | inactive: 0.408% | –
41 | CC(=O)Nc1ccc(S(=O)(=O)NC2(C(F)(F)F)C(=O)Nc3c2c(=O)[nH]c(=O)n3-c2cccc(Cl)c2)cc1 (stereo unspecified) | inactive: 3.17% | –
42 | COC(=O)[C@]12CCCCC=C1N(Cc1cccc3ccccc13)C(=O)[C@H](CC(=O)N1CCN(C(=O)c3ccco3)CC1)C2 | – | inconclusive [inhibitor, single point]
43 | Cc1cccc(-c2nc(CN3CCCC(C(=O)N4CCN(c5cc(Cl)ccc5C)CC4)C3)c(C)o2)c1 (stereo unspecified) | – | active: 20.6 µM
44 | COc1ncc(-c2ccc(N3C(c4ccsc4)=Cc4ccc(F)cc4C3CC(C)=O)cc2)cn1 (stereo unspecified) | – | inconclusive [inhibitor, single point]
45 | CN(C(=O)COC(=O)c1ccc2c(c1)OCCO2)c1ccccc1 | inactive: -22.7% | –
46 | COc1ccccc1N1CCN(CCCOc2ccc(F)cc2)CC1 | – | inconclusive [inhibitor, single point]
47 | COCCn1cc(C(=O)N2CCN(C)CC2)c2c3ccccc3n(C)c2c1=O | – | inconclusive [inhibitor, full curve, poor fit]
48 | CCCNC(=O)C1(C)CCN1C(=O)c1ccc(C(C)(C)C)cc1 (stereo unspecified) | – | active: 14.6 µM

Row | SMILES | activity change, negative = growth inhibition | Potency
49 | O=C(Cn1cnc2c(nnn2Cc2ccc(F)cc2)c1=O)Nc1ccc2c(c1)OCCO2 | inactive: -8.23% | –
50 | Fc1ccccc1Cc1noc(CN2CCN(c3ccc(Cl)cn3)CC2)n1 | – | inconclusive [inhibitor, single point]
51 | CC1CCCCN1C(=O)CSc1ccc(-c2ccc(F)cc2)nn1 (stereo unspecified) | – | inconclusive [inhibitor, single point]
52 | O=C(CCC(=O)OCC(F)(F)C(F)F)Nc1ccccc1F | inactive: -12.4% | –
53 | O=c1cc(-c2ccccc2)oc2cc(O[C@@H]3O[C@H](CO)[C@@H](O)[C@H](O)[C@H]3O)c(O)c(O)c12 | – | inconclusive [inhibitor, full curve, poor fit]
54 | COc1ccc(C(=O)NC(=S)N(CCC(C)C)c2c(N)n(Cc3ccccc3)c(=O)[nH]c2=O)cc1 | inactive: -15.1% | –
55 | Oc1ccc2cccnc2c1 | – | inconclusive [inhibitor, single point]
56 | Cc1ccc(CSc2nc3cccnc3n2Cc2ccc(C(=O)NCc3ccco3)cc2)cc1 | inactive: -27.6% | –
57 | Cc1cc(/C=C2\NC(=S)N(C)C2=O)ccc1N1CCCC1 | – | inconclusive [inhibitor, single point]
58 | Oc1ccc(Cl)cc1C1=Nc2ccccc2N=C(c2ccccc2)C1 | – | inconclusive [inhibitor, partial curve, poor fit]
59 | CCOC(=O)c1sc(N)c(C(=O)Nc2ccccc2)c1C | – | inconclusive [inhibitor, single point]
60 | Cc1ccc(CNC(=O)C23CN(Cc4ccccc4)CC2C(c2ccc([N+](=O)[O-])cc2)=NO3)o1 (stereo unspecified) | – | inconclusive [inhibitor, partial curve, poor fit]
61 | CCOc1ccc(CCNC(=O)c2ccc(OCc3c(C)noc3C)cc2)cc1OCC | – | active: 20.6 µM
62 | Cc1ccc(C2c3[nH]c4ccccc4c3C[C@H]3C(=O)N(c4ccccc4C(=O)N4CCC(C(=O)O)CC4)C(=O)N23)cc1 (stereo partly specified) | inactive: -6.76% | –
63 | COc1ccc(OC)c(NC(=O)c2ccc(CN3CCc4ccccc4C3)cc2)c1 | – | inconclusive [inhibitor, single point]
64 | CCCc1nnc(NC(=O)CCC(=O)N2CCN(Cc3cc(Cl)ccc3OC)CC2)s1 | – | inconclusive [inhibitor, full curve, poor fit]
65 | CCCc1cc(=O)oc2cc(O[C@@H]3O[C@H](CO)[C@@H](O)[C@H](O)[C@H]3O)ccc12 | inactive: -35.1% | –
66 | Cc1noc(C)c1NC(=O)N(C)C[C@H]1OCc2cn(nn2)CCCC(=O)N([C@@H](C)CO)C[C@@H]1C | – | inconclusive [inhibitor, single point]
67 | CCOC(=O)C1=C(C)NC2=C(C1c1ccc([N+](=O)[O-])cc1)S(=O)(=O)c1ccccc12 (stereo unspecified) | – | inconclusive [inhibitor, single point]
68 | O=C(Cn1cnc2c(oc3ccccc32)c1=O)NCC1CCCO1 (stereo unspecified) | inactive: -1.51% | –
69 | O=C(O)C1CCCN(S(=O)(=O)c2cccc3cccnc23)C1 (stereo unspecified) | inactive: -2.56% | –
70 | COc1ccccc1N1CCN(C(=O)c2ccccc2NC(=O)C2CCCCC2C(=O)O)CC1 (stereo unspecified) | inactive: -15.3% | –
71 | O=C1[C@H]2[C@@H](c3ccc(Cl)cc3)N3C(=O)N(c4cccc(Cl)c4)C(=O)[C@@]3(Cc3ccccc3)[C@H]2C(=O)N1C1CCCCC1 | – | active: 11.6 µM
